The source gives no read counts; variants with many changes may rest on few reads.
B1: LINE1-mini (parent)
chain: GGCAGAGCUCAACACAGCGUGGCAAAGUGGCUGUGGCUAGACUGCC

Variants of: B1
Assay: self-cleavage, relative activity (ratio to wild type); higher = more cleavage; in vitro, sequencing; the parent is a self-cleaving ribozyme

| Variant | self-cleavage |
| --- | --- |
| GGCAGAGCUCAACAGAGCGUGGCAAAGCGGCUGUGGCUAUAGUACC | 0.01 |
| GGUAGAGCUCAACACAGCGUGGCAAAGUUGCUCUGGCUAGACUGCC | 0.09 |
| GGAAGAGCUCAACACAGCGUGGCGAAGUGGCUGUGGCUGGACUGCC | 0.44 |
| GGCAGAGCUCAACCCAGAGCGGCAGAGUGGCUGUGGCUAGACUGCC | 0.04 |
| GGCAGAGAUCACCACAGCGUGGAAAAGUGGCUGUGGCUAAAAUGCC | 0.04 |
| AGCUGAGAUCAACACAGCGUGGCAAAGUGGCUGUGGCUAGACUGCC | 2.09 |
| GGCAGAGCUCAACACAGCGUGGCAUAUUGAAUGUGGCUAGACUGCC | 0.13 |
| GGCAGAGCUCAACACAGCGUGGCCAAUUGGCUGUGGCUAAACUGCC | 0.09 |
| GGCCGAGCCCAACACAGCGUGUCAAAGUAGUUGUGGCUAGACUGCC | 0.01 |
| GCCAGAGCUCAACACAGCGUGGUAAAUUCGCUGGCGCUAGACUGCC | 0.16 |
| AGCAGAGCUCCACACAGCGUGACAAAGUGGCUGUGGCUCGACUGCC | 0.01 |
| AGCAGAGAUUAACACAGCGUGGCAAAGUGGCUGUGGCUAGACUGCC | 0.08 |
| GGCUUAGCUCAAAACAGCGUGGCAAAGUGGCUGUGGCUAGACUGCC | 0.24 |
| GUCGGAGCUCAACACAUCGUGGCAAAGUAACUGUGGCUAGACUCCC | 0.06 |
| GGCAGAGCUCAUCAGAGCGUGGUAAAGUGGCUGUGGGUAGACUGCC | 0 |
| GGCAGAGGUCAACACAGCGUGGCAAAGUUGCUGUGGCUAGAGUGCC | 0.11 |
| GGCCGAGCUCAACAGAACGUGGCAAAGUGGCUGUGUCUAGAUUACC | 0.04 |
| UGCAUAGCUCAACACAGGGUGUCAAAGUGGCUGUAGCUAGACUGCC | 0.04 |
| GACAGAGCUCAACACAGAGUGGCAAAGUGGAUGUGGAUAGACUGCG | 0.08 |
| GCCAGAGCUCAACAAAGCGAGGCAAAGUGGCUAUGGCUAGACUGCC | 0.02 |
| GGAAGAGCUCAGCACAGCGUGGCAAAGUGGAUUUGGCUAGACUGCC | 0.19 |
| GGCAGAGCUAAACACCGCGUGGCAAGGUGGCUGUGGCUAGACUGCC | 0.04 |
| GGCAGAAGUAAACAAAGCGUGACAAAGUGGCUGUGGCUAAACUGCC | 0.04 |

| Variant | self-cleavage |
| --- | --- |
| GGCAGAGCUCAUCACAGCGUGGCAAAGUGUCUGUGGCUAGAUUGCC | 0.03 |
| GGCAGAGCUCAACAUAGCGUAGCAAAGUCGCUGUGGCUAGACUGCC | 2.53 |
| GGCAGCGCACACCACAGCGUGGCAAAGUGGCUGUGGCUAGACUGCC | 0.01 |
| GGCCGAGCUCAACACAGCGUGGCAAAGUGGAUGUGGCAAGACUGCC | 0.09 |
| GGCAGAGUUCACCACAGCGUGUCAAAGUGGCUGUGGUCAGACUGCC | 0.01 |
| GGCAGAGCUCAACCCAGCGUGGUAAAGUGGCUGUGGCUAGACUGCA | 0.12 |
| GGUAGAGCGCAACGCAGCGUGGCAAAGUGGCUGUGGCUAGACUGCC | 0.09 |
| GGCAGAACUCAGCACAGUGUGGCAAAGUGGCAGUGGCUAGACUGCA | 0.16 |
| GGUAGAGCUGAACACCGUGUGGCAAUGUGGCUCUGGCUAGACUGCC | 0.02 |
| GGCAGAGCUCAACACAGCGUGGACAAUUUGCUGUGGCUAGACUGCC | 0.49 |
| GGCAAAGCUCAACACAGCGUGGCAAAGUGGUUGUGGUUAGACUGCC | 0.13 |
| GGCAUAGCGCAACACAGCGUGGCAAAGUGGCUGUGGCUAGACUUCC | 0.02 |
| GGGAGAGCUCAACCCAGCGUGGCAAAGUGGCUGUCGCUAGACUGCC | 0.03 |
| GGCAGUGCUCAACACAGCGUGGCUAAGUGCCUAUGGCUAGACUGAC | 0.05 |
| GGAAGAGCUCAACAAAGCGUGGCAGAGUGGCUGUGGCUAGACUGCC | 0.16 |
| GGCAGAGCUCAACACAGCCUUGCAAAGUGGCUGGGGCUAGACUGCC | 0.93 |
| GGCAGAGCUCAACAGAUCGGGGCAAAGUGGCUGUGGCUAGACUGCC | 0.02 |
| GUUAGACCUCCACACAGCGUGGCAAAGUGGCUGUGGCUAGAUUGCC | 0.01 |
| GGAAGAGCUCGAGACAGCGUGGCAAAGUGGCUGUGGCUAGACUGCC | 0.03 |
| GGCAGAGCUAAACACAGCGGAGCAAAGUGGCUGUGGCUAGCCUGCC | 0 |
| GGCAGAGCUAAACACAACGUGGCAAAGUGGCUGUGGCUAGACUGCU | 0.05 |
| GGCAGAGCUAAACACACCGUGGCAAUGUGGCUGUGGCUAGACUGCC | 0.03 |
| GGCUGAGCUCAACACAUCGUGGCAAAGUACCUGUGGCUAGACUGCC | 0.03 |

| Variant | self-cleavage |
| --- | --- |
| GGCAGAGAUCGACACAGCGUGGCAAAGUGGCCGUGGCUACACUGCC | 0 |
| GGCAGACCUCAACACAGCGUGGCAACGGGACUGUGGCUUGACUGCC | 0.19 |
| GGGAAGACUCAACACAGCGUGGCAAAGUGGCUGUGGUUUGACUGCC | 0.26 |
| GGCCUAGAUCAACACAGAGUGGCAAAGUGGCUGUGGCUAGGCUGCC | 0.11 |
| GGCAGAGCUCAACUCAGCGUAGCAAAGUGGCUGUGGCUAGACUGCA | 0.19 |
| GGCAAAGCUCAACACCGCGUGGCAAAGUGGCUGUGGCUAGACUGCU | 0.03 |
| GGCUGAGCUCACAACAGCGUUGCAAAGUGGCUGUGGCUAGACUGCC | 0.1 |
| GGCAGAGCUCUACACAGGGUGGCAAAGAGGUUGUGGCUAGACUGCC | 0.01 |
| GGCAGAGCUCAACACAGCGUGGCAAAGUGUCUGUCGCUUGACUGCC | 0.03 |
| GGCAGUGCUCAACCCAGCGUGGCAAAGUGGCUGUGGCAAGAGUGCC | 0.05 |
| GGAAGAGUUCAACACAGCGUGGCAAAGUGGCUGUGGCUAUACUGCC | 0.35 |
| GGCAGAGCUCAGCACGGCCUGGCAAAGAGGCUGUGGCUAGACUGCC | 0.02 |
| GGCAUAGCUGACCACAGCGUGGCAAAGUGGCUGUGGCUAUACUGCC | 0.03 |
| GCCAGAGCUCAACACAGCGUGGCAAAGUGGCUGUGGCCAGAGUGCC | 0.21 |
| GUCAGAGCGCAACACAGCGUGGCAAAGUGGCUGUGGCUAGACCGCC | 0.01 |
| GGCAGAGCUCAAGUCAGAGUGGCAAAGUGGCUGUGGCUAGUCUGCC | 0.09 |
| GGCAGAGCUCUACACAGCGUCGCAAGGUGGCAGUGGCUAGACUACC | 0.01 |
| GGCAGAGUUCAACAGAGCGUGGCAAAUUGGCUGUGGCUAGACUGCU | 0.12 |
| GGCUGAGCGCAAGACAGCGGGGCAAAGUGGCUGUGGCUAGACUGCC | 0.07 |
| UGCAGAGUGCAACACAGCUUGGCAAAGUGGCGGUGGCUAGACUGCU | 0.03 |
| GGCAGAACUCUACACAGCGUAGCAAAGUAGCUGUGGCUAGACUGCC | 0.04 |
| GGCAGUGCUAAACCCAGCGUGGCAAAGUGGCUGUGGCUAGACUGCC | 0.02 |
| GGCAGAGCUCAACACAACGUGGCAAAGUGGCUAUGGCGAGACUGGC | 0.02 |

| Variant | self-cleavage |
| --- | --- |
| GGCAUAGCUCAACACAGCGUGGCAAAGUGGUUGUGGCUAGCCUGCC | 0.03 |
| GCCAGAGCUCAACACAGGGUGGCAAAGUGGAUGUGGCUAGACUGCC | 0.07 |
| GGCGGGGCUCAACACAGCGUGGCAAAAUGUCUGUGACUAGACUUCC | 0.04 |
| GGCAGAGCGCAACACAGCGUUGCAAGUUGGCUGUGGCUAGACUGCC | 0.06 |
| GGCAGAGCUCAACACAGCGGGGCAAAGUUGCUGUGGCGAGACUGCC | 0.01 |
| GGCAGAGCUCAUGACAGCGUGGCAAAGUGGCUGUGGCUGGUCUGCC | 0.04 |
| GGCAGAGGUCAAUACAGCGUGGCAAACAGGCUGUGGCUUGACUGCC | 0 |
| GGAAGAACUCAACACAGCGUGGCAAAGCGGCUGUGGCUAGACUGCC | 0.12 |
| GGCAGAGCUCAACACAGCGUGGCCAAGGCGUUGUGGCUAUACUGCC | 0.03 |
| GGCAGAGCUCAACACAGCGUGGCAAUGUGUCCGUGGCUAGACUGCC | 0.2 |
| GGCAGGGCUUAACGCAGUGUGGCAAAGUGGCUGAGGCUUGACUGCC | 0.01 |
| GGCAGAGCUAAACACAGCGUGGCAAAGUGGCUUUGGCUAGACUACC | 0.02 |
| GGCAGAACUCAACACAGAGUGGCAAAGUGGCUGUGUUUAGACUGCC | 0.01 |
| GGCAUAGCUCCACAGAGCGUGGCAAAGUGGCUGUGUCUAGAUUGCC | 0.01 |
| GGCAGGGCUCAACACGGCGUGGCAAAGUGGCUGUGGCAAGACUGCC | 0.03 |
| GACAGAGCUCAACACAAUGUCGCAAAGUGGCUGUGGCUAGACUGAC | 0.05 |
| GGCAGAGCUCAAUACAGCGUGGCAAAGUUGCUGUGGCUAGACUCCC | 0.13 |
| GGCAGAGCUCAACACAGCGUGUCAAAGUGACUGUGGCUAGACGGCC | 0 |
| GGCAGAGCUCAAAACAGCGUGGCAAAGUGGCUGAGGCUAUACUGCC | 0.05 |
| GGAAGAGCUCAAGACAGCGCGGCAAAGUGGCUGUGGCUAGACUGCC | 0.05 |
| GGCAGAGCUCUACACAGCGUGGCAAAGUGGUUGUGGCUAAACUGCC | 0.03 |
| GGCAGAUCUCAACACAGCGUGGGAAAGUGGCUGUGGCUCGACUGCC | 0.04 |
| GGAGGAACUCAACACAGCGUGGCAAAUUGGCUGGGGCUAGACUGCC | 0.09 |

| Variant | self-cleavage |
| --- | --- |
| GGCAGAUCUCAACACAGCGUGGCCAAGUGUCUAUGUCUAGACUGCC | 0.2 |
| GGCAGAGCUCAACACAGCGUGGCAAAUUGGCUCUGACUAGACUGCC | 0.01 |
| AGGAAAGCGCAACACAGCGUGACAAAGUGGCUGUGGCUAGACUGCC | 0.39 |
| GGCAGAGCUCAAAACGUCGUGGCAAAGUGGCUGUGGCUAGCCUGCC | 0.06 |
| CGCAGAGCUCAACACAGCGUGCCAAAGUGGCUGUGACUAGACGGCC | 0.09 |
| GUCAGAGCUCAACACAGCGUGGCAAAGUGGCUGCGGCUAGAUUGCC | 0.04 |
| GGCAUAGCUCAACACGGCGUGGCAAAGUGGCUGUUGCUAGACUGCC | 0.05 |
| GUCAGAGCUCACCACAGCGUGGCAAAGUGGCUGUUGCUUGACUGCC | 0.03 |
| AGCAGAGCUGAACACAGCGUGGCAAACUGGCUGUGGCUAUACUGUC | 0.01 |
| GGCAGAGCUCAACACAGCGUGACAAAAUGGCUGUGGCUAGGCUGCC | 0.74 |
| GGCAGAGCUCAACACAGCGUGGCAAAGUCAAGGUGGCUAGACUGCC | 0.09 |
| GGCAGAGCUCAACACAGCGUGGCCAAGUGGCUGUGGCUGGACUGUC | 0.13 |
| GGCAGAGGUCAACACCGCGUUGCAAAGUGUCUGGGGCUAGACUGCC | 0 |
| GGCGGAGCUCAACAAAGCCUGGCAAAGUGGCUGUGGCUAGACUGAC | 0.14 |
| GGCAGAGCUCAAAACAGCGUGGCAAAGUGGCGGUGACUAGACUGCC | 0.05 |
| GGCAGAGCUCAACACAGCGUGGCCAAGUGGCUGUGGGUAGCCUGCU | 0.03 |
| GGCAAAGCUGAACACAGCGUGGCAAAGUGGCUGUGGCCAGAUUGCC | 0.01 |
| GGCCGAGCCUAACAGAGCGUGGCAAAUUGGCUGUGGCUAGACUGCC | 0.04 |
| GGCACAGCUCAACACAGCGUGGCAAAGGGGCUGUGGCAAGACUGCC | 0.01 |
| GUCAGAGCUCACCACAGCGUGGCUAAGUGGCUGUGGCUAGACUGCC | 0.02 |
